The results in this text go back to publication PMC6717765, “p32 is a negative regulator of p53 tetramerization and transactivation” (Molecular Oncology, 2019).

This experiment concerns the target T1, His-tagged p32 (wild type, recombinant) (UniProt Q07021 74-282).
T1 construct: p32 (gC1qR/C1QBP/HABP1); also called His-p32; mature p32
T1 sequence (looked up): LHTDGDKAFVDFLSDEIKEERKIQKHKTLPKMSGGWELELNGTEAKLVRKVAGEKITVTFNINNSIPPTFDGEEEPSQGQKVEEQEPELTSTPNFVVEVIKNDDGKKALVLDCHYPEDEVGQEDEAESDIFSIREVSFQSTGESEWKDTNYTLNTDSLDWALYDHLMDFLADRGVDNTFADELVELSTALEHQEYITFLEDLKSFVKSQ
The experiment in a line: pull-down; GST or GST-p53 fusions immobilised on glutathione-Sepharose beads, His-tagged p32 in solution; overnight at 4 °C; 20 mM Tris/HCl pH 7.3, 0.2 M KCl, 0.2 mM EDTA, 20% glycerol, 0.01% Nonidet P-40; blot with anti-His. As to conditions: both partners purified.

B1: GST-p53 C-terminal region ([…]) (domain or fragment)
chain: not shown
notes: source: bacterially produced, purified on glutathione-Sepharose 4B beads
With B1, the binding result is recorded as “binds”.
